± gives the standard deviation. This is a selection; strong and weak results do not stand in their true shares.
System: MIWI (PIWIL1) piRISC loaded with L1MC piRNA (30 nt)
Assay: pre-steady-state target cleavage rate (min^-1); MIWI and MILI are mouse PIWI proteins and EfPiwi is from a freshwater sponge; tags in brackets are library labels; higher = faster piRNA-guided slicing of the target
Details: guide: L1MC piRNA 5'p-UAACUAAAUACUAUGCAAGCUGUAGGUCCU
Summary of the method: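 Cleave-'n-Seq: a transcribed, DNA-blocked target RNA library (0.1 nM) was mixed with 1 nM active affinity-purified piRISC carrying one synthetic guide, with or without 500 nM GTSF1 partner protein, in HEPES–potassium acetate buffer at 33 °C for 0–8 or 0–960 min. Uncleaved targets were sequenced and normalised to depth and to weakly complementary targets. Three trials were pooled, and k3 was capped at 0.0001 min^-1. The pre-steady-state cleavage rate came from a burst-and-steady-state fit.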

[1] = auxiliary factor: 500 nM mouse GTSF1
[2] = auxiliary factor: none (no GTSF1)

UCCUCCUACAGCUUGCAUAGUAUUAUCUUA
pre-steady-state target cleavage rate [1]: 0.256 ± 0.037 | pre-steady-state target cleavage rate [2]: 0.0035 ± 0.0025

UCGACCUACAGCUUGCAUACUAUUUUGUUA
pre-steady-state target cleavage rate [1]: 0.218 ± 0.02 | pre-steady-state target cleavage rate [2]: 0.0176 ± 0.0038

UCCUGCUACAGCAAGCAUAGUAUUUAGUUA
pre-steady-state target cleavage rate [1]: 1.17 ± 0.11 | pre-steady-state target cleavage rate [2]: 0.00323 ± 0.0021

UCGAUCCUACAGCUUGCAUAGUAUUUAGUUA
pre-steady-state target cleavage rate [1]: 1.49 ± 0.042 | pre-steady-state target cleavage rate [2]: 0.0686 ± 0.013

UCCUGGAACACGCUUGCAUAGUAUUUAGUUA
pre-steady-state target cleavage rate [1]: 0.904 ± 0.039 | pre-steady-state target cleavage rate [2]: 0.0525 ± 0.0094

UCGACCUACAGCUUGGAUAGUAUUUACUUA
pre-steady-state target cleavage rate [1]: 0.491 ± 0.046 | pre-steady-state target cleavage rate [2]: 0.046 ± 0.0086

UCCUCCUAGAGCUUGCAUACUAUUUAGUUA
pre-steady-state target cleavage rate [1]: 0.407 ± 0.045 | pre-steady-state target cleavage rate [2]: 0.0215 ± 0.0045

UCCUGCUACAGCUUGCAUAGUUUUUAGUUA
pre-steady-state target cleavage rate [1]: 0.307 ± 0.023 | pre-steady-state target cleavage rate [2]: 0.0223 ± 0.0048

UCCUGGUAGCAGCUUGCAUAGUAUUUAGUUA
pre-steady-state target cleavage rate [1]: 0.999 ± 0.046 | pre-steady-state target cleavage rate [2]: 0.0676 ± 0.014

UCCUGGAUGAGCUAGCAUAGUAUUAAGUUA
pre-steady-state target cleavage rate [1]: 0.21 ± 0.026 | pre-steady-state target cleavage rate [2]: 0.00343 ± 0.0028

AGGACCUACAGCUUGCAUAGUUUUUACUUA
pre-steady-state target cleavage rate [1]: 0.148 ± 0.023 | pre-steady-state target cleavage rate [2]: 0.0132 ± 0.0039

UCCUGGAACAGCUUACAUAGUAUUUAGUUA
pre-steady-state target cleavage rate [1]: 1.04 ± 0.04 | pre-steady-state target cleavage rate [2]: 0.054 ± 0.011

UGGACCUACAGGAUGCAUAGUAUUUAGAAA
pre-steady-state target cleavage rate [1]: 0.291 ± 0.04 | pre-steady-state target cleavage rate [2]: 0.00285 ± 0.0024

UCCACCUACAGCUUGCAUAGUAUUUGAGUUA
pre-steady-state target cleavage rate [1]: 0.506 ± 0.046 | pre-steady-state target cleavage rate [2]: 0.0232 ± 0.005

UCCUGGAUGUCCUUGCAUAGUAAUUAGUUA
pre-steady-state target cleavage rate [1]: 0.023 ± 0.0088 | pre-steady-state target cleavage rate [2]: 0.00356 ± 0.0015

UCCUGGUACUCCUUGCAUAGUAUUUAGUUA
pre-steady-state target cleavage rate [1]: 0.216 ± 0.044 | pre-steady-state target cleavage rate [2]: 0.00686 ± 0.0022

AGCACCUACAGCUUGCAUAGUAUUUAGUAA
pre-steady-state target cleavage rate [1]: 0.974 ± 0.12 | pre-steady-state target cleavage rate [2]: 0.197 ± 0.062

UGGACCUACAGCUUGCAUAGAUUUUAGUAA
pre-steady-state target cleavage rate [1]: 0.0856 ± 0.019 | pre-steady-state target cleavage rate [2]: 0.00279 ± 0.0026

AGGACCUACAGCUUGCCAUAGUAUUUAGUUA
pre-steady-state target cleavage rate [1]: 0.445 ± 0.048 | pre-steady-state target cleavage rate [2]: 0.00418 ± 0.0029

UCCUGGAUGUCCUUGCAUAGUAUUUGAGUUA
pre-steady-state target cleavage rate [1]: 0.0326 ± 0.01 | pre-steady-state target cleavage rate [2]: 0.00342 ± 0.0027

Source: the supplement of paper PMC10338343
